# The supplement of paper PMC8728848
# The list shows a part of the results.
# Tests used:
# Experiment in all cases: glycan array binding signal (z-score within array); higher = stronger binding
# Details in all cases: glycan notation: IUPAC condensed, linker removed; mutation: E41G
# [1] = biological target: Fuc(a1-2)[GalNAc(b1-3)]Gal
# In short: (§1)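 Glycan array data were curated from 3228 arrays in the Consortium for Functional Glycomics database and kept only where the protein sequence was available. Glycan names were converted to IUPAC-condensed notation, and columns mapping to the same glycan were averaged. The binding signal is a within-array Z-score, averaged across arrays of the same protein sequence at different concentrations or buffers and across linkers. Negative Z-scores can be read as non-binding.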
# Fuc(a1-3)GlcNAc = biological target: Fuc(a1-3)GlcNAc
# In short: as §1
# [2] = biological target: Fuc(a1-3)[Gal(b1-4)]Glc6S
# In short: as §1
# [3] = biological target: Fuc(a1-3)[Gal(b1-4)]GlcNAc
# In short: as §1
# [4] = biological target: Fuc(a1-3)[Gal(b1-4)]GlcNAc(b1-2)Man
# In short: as §1
# [5] = biological target: Fuc(a1-3)[Gal(b1-4)]GlcNAc(b1-2)Man(a1-3)[Fuc(a1-3)[Gal(b1-4)]GlcNAc(b1-2)Man(a1-6)]Man(b1-4)GlcNAc(b1-4)GlcNAc
# In short: as §1
# [6] = biological target: Fuc(a1-3)[Gal(b1-4)]GlcNAc(b1-2)Man(a1-3)[Fuc(a1-3)[Gal(b1-4)]GlcNAc(b1-2)Man(a1-6)]Man(b1-4)GlcNAc(b1-4)[Fuc(a1-6)]GlcNAc
# In short: as §1
# [7] = biological target: Fuc(a1-3)[Gal(b1-4)]GlcNAc(b1-3)Gal(b1-3)[Fuc(a1-4)]GlcNAc
# In short: as §1
# [8] = biological target: Fuc(a1-3)[Gal(b1-4)]GlcNAc(b1-3)Gal(b1-4)[Fuc(a1-3)]GlcNAc
# In short: as §1
# [9] = biological target: Fuc(a1-3)[Gal(b1-4)]GlcNAc(b1-3)Gal(b1-4)[Fuc(a1-3)]GlcNAc(b1-3)Gal(b1-4)[Fuc(a1-3)]GlcNAc
# In short: as §1
# [10] = biological target: Fuc(a1-3)[Gal(b1-4)]GlcNAc(b1-3)GalNAc
# In short: as §1
# [11] = biological target: Fuc(a1-3)[Gal(b1-4)]GlcNAc(b1-6)GalNAc
# In short: as §1
# [12] = biological target: Fuc(a1-3)[Gal(b1-4)]GlcNAc(b1-6)[Gal(b1-3)GlcNAc(b1-3)]Gal(b1-4)Glc
# In short: as §1
# [13] = biological target: Fuc(a1-3)[Gal(b1-4)]GlcNAc6S
# In short: as §1
# [14] = biological target: Fuc(a1-3)[Gal3S(b1-4)]Glc
# In short: as §1
# [15] = biological target: Fuc(a1-3)[Gal3S(b1-4)]GlcNAc
# In short: as §1
# [16] = biological target: Fuc(a1-3)[Gal3S(b1-4)]GlcNAc6S
# In short: as §1
# [17] = biological target: Fuc(a1-3)[GalNAc(b1-4)]GlcNAc
# In short: as §1
# [18] = biological target: Fuc(a1-3)[GalNAc(b1-4)]GlcNAc6S
# In short: as §1
# Fuc(a1-4)GlcNAc = biological target: Fuc(a1-4)GlcNAc
# In short: as §1
# Fuc(b1-3)GlcNAc = biological target: Fuc(b1-3)GlcNAc
# In short: as §1
# Gal(a1-2)Gal = biological target: Gal(a1-2)Gal
# In short: as §1
# Gal(a1-3)Gal = biological target: Gal(a1-3)Gal
# In short: as §1
# Gal(a1-3)Gal(b1-3)GlcNAc = biological target: Gal(a1-3)Gal(b1-3)GlcNAc
# In short: as §1
# [19] = biological target: Gal(a1-3)Gal(b1-3)GlcNAc(b1-2)Man
# In short: as §1
# [20] = biological target: Gal(a1-3)Gal(b1-3)GlcNAc(b1-2)Man(a1-3)[Gal(a1-3)Gal(b1-3)GlcNAc(b1-2)Man(a1-6)]Man(b1-4)GlcNAc(b1-4)GlcNAc
# In short: as §1
# [21] = biological target: Gal(a1-3)Gal(b1-3)GlcNAc(b1-3)GalNAc
# In short: as §1
# [22] = biological target: Gal(a1-3)Gal(b1-3)GlcNAc(b1-6)GalNAc
# In short: as §1
# [23] = biological target: Gal(a1-3)Gal(b1-3)[Fuc(a1-4)]GlcNAc(b1-2)Man(a1-3)[Gal(a1-3)Gal(b1-3)[Fuc(a1-4)]GlcNAc(b1-2)Man(a1-6)]Man(b1-4)GlcNAc(b1-4)GlcNAc
# In short: as §1
# Gal(a1-3)Gal(b1-4)Glc = biological target: Gal(a1-3)Gal(b1-4)Glc
# In short: as §1
binder,measurement,setting,value
CVN-E41G (protein) MHHHHHHENLYFQSGNFSQACYNSAIQGSVLTSTCIRTNGGYNTSSIDLNSVIGNVDGSLKWQGSNFIETCRNTQLAGSSELAAECKTRAQQFVSTKINLDDHIAAIDGTLKYE,glycan array binding signal (z-score),[1],-0.125
same,glycan array binding signal (z-score),Fuc(a1-3)GlcNAc,-0.168
same,glycan array binding signal (z-score),[2],-0.089
same,glycan array binding signal (z-score),[3],-0.18
same,glycan array binding signal (z-score),[4],-0.166
same,glycan array binding signal (z-score),[5],-0.129
same,glycan array binding signal (z-score),[6],-0.101
same,glycan array binding signal (z-score),[7],-0.081
same,glycan array binding signal (z-score),[8],0.036
same,glycan array binding signal (z-score),[9],-0.171
same,glycan array binding signal (z-score),[10],-0.166
same,glycan array binding signal (z-score),[11],-0.128
same,glycan array binding signal (z-score),[12],-0.166
same,glycan array binding signal (z-score),[13],-0.141
same,glycan array binding signal (z-score),[14],-0.188
same,glycan array binding signal (z-score),[15],-0.175
same,glycan array binding signal (z-score),[16],-0.133
same,glycan array binding signal (z-score),[17],-0.105
same,glycan array binding signal (z-score),[18],-0.114
same,glycan array binding signal (z-score),Fuc(a1-4)GlcNAc,-0.14
same,glycan array binding signal (z-score),Fuc(b1-3)GlcNAc,-0.165
same,glycan array binding signal (z-score),Gal(a1-2)Gal,-0.139
same,glycan array binding signal (z-score),Gal(a1-3)Gal,-0.158
same,glycan array binding signal (z-score),Gal(a1-3)Gal(b1-3)GlcNAc,-0.138
same,glycan array binding signal (z-score),[19],-0.137
same,glycan array binding signal (z-score),[20],-0.116
same,glycan array binding signal (z-score),[21],-0.138
same,glycan array binding signal (z-score),[22],-0.165
same,glycan array binding signal (z-score),[23],1
same,glycan array binding signal (z-score),Gal(a1-3)Gal(b1-4)Glc,-0.178
